Among the data in the supplement of paper PMC10369915 are enrichment score values, retold here.

Some of the results follow. Cut-off read from the data, not from the text of the source: active = 3.2 or more and inactive = the rest. The signal is at background level for most entries.
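Note: displayed peptides selected on beads carrying the immobilized SH2 domain, with library peptides lacking any tyrosine serving as negative controls.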

The target in the first test is SHP2 C-SH2 domain E139D. In words: enrichment score (SH2-bound / input frequency) (ratio); bacterial display of known human phosphotyrosine sites (pTyr-Var adds point mutants) read by sequencing; higher = stronger binding; tyrosines were phosphorylated by kinases first. The conditions noted are these: peptide library: pTyr-Var.
Turning to AAESTYDKILK [GDNF_Y156_T154S], the enrichment score is inactive: 0.703.

For ITNLLYHVVGG [GBA_Y412_W417G], the enrichment score is inactive: 2.02.

Consider GISDEYHVIRH [GCDH_Y398], for which the enrichment score is inactive: 0.896.

With SDVSSYLEGQV [GCG_Y110_A115V], the enrichment score is inactive: 0.847.

As for ITNLLYHVVSW [GBA_Y412_G416S], the enrichment score was active: 3.82.

Consider NTFEKYWLFFQ [GATM_Y103_P105L_YF], for which the enrichment score is inactive: 2.43.

In the case of TKDTFYQQPMF [GBA_Y451_K452Q], the enrichment score is inactive: 0.712.

Turning to VNFDYYTVNLG [GFPT1_Y367_D366Y], the enrichment score is inactive: 1.92.

For the molecule RASDYYSQQMA [GBP6_Y334_A331S], the enrichment score was inactive: 0.723.

For PKEQKYSFLQN [GH1_Y68], the enrichment score is inactive: 0.714.

Consider RENGPYYTSYP [GDAP2_Y487], for which the enrichment score was inactive: 0.758.

As to RENGPYFTSFP [GDAP2_Y487_YF], the enrichment score was inactive: 0.806.

Consider NFYEYYVDDPP [GCHFR_Y48], for which the enrichment score was inactive: 0.96.

For PYYTSYPPSPD [GDAP2_Y491], the enrichment score is inactive: 0.833.

For the molecule LSVISYDLGMF [GBA3_Y174_M172I], the enrichment score was inactive: 1.77.

QPRDIYHQTWA [GBA_Y244_G241R]: the enrichment score was inactive: 0.818.

Regarding TKDTIYKQPMF [GBA_Y451_F450I], the enrichment score was inactive: 0.788.

On to PKEQRYSFLQN [GH1_Y68_K67R], for which the enrichment score was inactive: 0.576.

In the case of VKMLLYTEVTR [GDI1_Y93], the enrichment score was inactive: 1.88.

The target of another test is SHP2 C-SH2 domain wild-type. The description is as above. Conditions: peptide library: pTyr-Var.
For AAESTYDKILK [GDNF_Y156_T154S], the enrichment score is inactive: 0.506.

With ITNLLYHVVGG [GBA_Y412_W417G], the enrichment score was inactive: 1.83.

Regarding GISDEYHVIRH [GCDH_Y398], the enrichment score was inactive: 0.785.

SDVSSYLEGQV [GCG_Y110_A115V]: the enrichment score was inactive: 0.984.

With ITNLLYHVVSW [GBA_Y412_G416S], the enrichment score was active: 3.44.

NTFEKYWLFFQ [GATM_Y103_P105L_YF]: the enrichment score was inactive: 2.28.

With TKDTFYQQPMF [GBA_Y451_K452Q], the enrichment score is inactive: 0.583.

Turning to VNFDYYTVNLG [GFPT1_Y367_D366Y], the enrichment score is inactive: 1.56.

With RASDYYSQQMA [GBP6_Y334_A331S], the enrichment score is inactive: 0.766.

PKEQKYSFLQN [GH1_Y68]: the enrichment score is inactive: 0.635.

Take RENGPYYTSYP [GDAP2_Y487]: the enrichment score was inactive: 0.836.

With RENGPYFTSFP [GDAP2_Y487_YF], the enrichment score is inactive: 0.648.

With NFYEYYVDDPP [GCHFR_Y48], the enrichment score was inactive: 1.02.

Consider PYYTSYPPSPD [GDAP2_Y491], for which the enrichment score is inactive: 0.79.

Regarding LSVISYDLGMF [GBA3_Y174_M172I], the enrichment score was inactive: 1.31.

With QPRDIYHQTWA [GBA_Y244_G241R], the enrichment score is inactive: 0.987.

TKDTIYKQPMF [GBA_Y451_F450I]: the enrichment score is inactive: 0.971.

Turning to PKEQRYSFLQN [GH1_Y68_K67R], the enrichment score is inactive: 0.692.

Take VKMLLYTEVTR [GDI1_Y93]: the enrichment score is inactive: 1.81.

The target in another test is SHP2 N-SH2 domain L43F. The test is described as above. Conditions: peptide library: pTyr-Var.
Regarding AAESTYDKILK [GDNF_Y156_T154S], the enrichment score is inactive: 0.622.

For the molecule ITNLLYHVVGG [GBA_Y412_W417G], the enrichment score is inactive: 2.

As for GISDEYHVIRH [GCDH_Y398], the enrichment score is inactive: 0.808.

Regarding SDVSSYLEGQV [GCG_Y110_A115V], the enrichment score was inactive: 0.797.

With ITNLLYHVVSW [GBA_Y412_G416S], the enrichment score was inactive: 3.14.

In the case of NTFEKYWLFFQ [GATM_Y103_P105L_YF], the enrichment score was inactive: 2.33.

As for TKDTFYQQPMF [GBA_Y451_K452Q], the enrichment score is inactive: 1.59.

VNFDYYTVNLG [GFPT1_Y367_D366Y]: the enrichment score was inactive: 1.74.

As to RASDYYSQQMA [GBP6_Y334_A331S], the enrichment score was inactive: 0.818.

In the case of PKEQKYSFLQN [GH1_Y68], the enrichment score was inactive: 0.59.

Take RENGPYYTSYP [GDAP2_Y487]: the enrichment score is inactive: 0.728.

As to RENGPYFTSFP [GDAP2_Y487_YF], the enrichment score was inactive: 0.683.

As to NFYEYYVDDPP [GCHFR_Y48], the enrichment score was inactive: 0.743.

Turning to PYYTSYPPSPD [GDAP2_Y491], the enrichment score was inactive: 0.911.

LSVISYDLGMF [GBA3_Y174_M172I]: the enrichment score is active: 6.78.

Consider QPRDIYHQTWA [GBA_Y244_G241R], for which the enrichment score was inactive: 0.792.

Take TKDTIYKQPMF [GBA_Y451_F450I]: the enrichment score was inactive: 1.72.

In the case of PKEQRYSFLQN [GH1_Y68_K67R], the enrichment score is inactive: 0.721.

With VKMLLYTEVTR [GDI1_Y93], the enrichment score is inactive: 1.52.

Another test concerns the target SHP2 N-SH2 domain T42A. Described as above. Conditions: peptide library: pTyr-Var.
For the molecule AAESTYDKILK [GDNF_Y156_T154S], the enrichment score is inactive: 0.465.

As for ITNLLYHVVGG [GBA_Y412_W417G], the enrichment score is inactive: 1.63.

Consider GISDEYHVIRH [GCDH_Y398], for which the enrichment score is inactive: 0.68.

Regarding SDVSSYLEGQV [GCG_Y110_A115V], the enrichment score was inactive: 0.813.

Take ITNLLYHVVSW [GBA_Y412_G416S]: the enrichment score is inactive: 2.86.

Turning to NTFEKYWLFFQ [GATM_Y103_P105L_YF], the enrichment score is inactive: 2.25.

In the case of TKDTFYQQPMF [GBA_Y451_K452Q], the enrichment score was active: 3.74.

As for VNFDYYTVNLG [GFPT1_Y367_D366Y], the enrichment score was inactive: 1.83.

As to RASDYYSQQMA [GBP6_Y334_A331S], the enrichment score is inactive: 0.735.

On to PKEQKYSFLQN [GH1_Y68], for which the enrichment score was inactive: 0.466.

For the molecule RENGPYYTSYP [GDAP2_Y487], the enrichment score is inactive: 0.575.

Consider RENGPYFTSFP [GDAP2_Y487_YF], for which the enrichment score was inactive: 0.419.

NFYEYYVDDPP [GCHFR_Y48]: the enrichment score is inactive: 0.938.

Turning to PYYTSYPPSPD [GDAP2_Y491], the enrichment score was inactive: 0.968.

On to LSVISYDLGMF [GBA3_Y174_M172I], for which the enrichment score was inactive: 2.61.

As to QPRDIYHQTWA [GBA_Y244_G241R], the enrichment score was inactive: 0.64.

With TKDTIYKQPMF [GBA_Y451_F450I], the enrichment score is active: 3.71.

Consider PKEQRYSFLQN [GH1_Y68_K67R], for which the enrichment score was inactive: 0.659.

Consider VKMLLYTEVTR [GDI1_Y93], for which the enrichment score was inactive: 2.05.

The target in the next test is SHP2 N-SH2 domain T52S. The description is as above. Conditions: peptide library: pTyr-Var.
Consider AAESTYDKILK [GDNF_Y156_T154S], for which the enrichment score is inactive: 0.492.

For ITNLLYHVVGG [GBA_Y412_W417G], the enrichment score is inactive: 1.98.

As to GISDEYHVIRH [GCDH_Y398], the enrichment score was inactive: 0.822.

Take SDVSSYLEGQV [GCG_Y110_A115V]: the enrichment score was inactive: 0.644.

Consider ITNLLYHVVSW [GBA_Y412_G416S], for which the enrichment score was inactive: 2.91.

With NTFEKYWLFFQ [GATM_Y103_P105L_YF], the enrichment score was inactive: 2.31.

On to TKDTFYQQPMF [GBA_Y451_K452Q], for which the enrichment score was inactive: 1.52.

In the case of VNFDYYTVNLG [GFPT1_Y367_D366Y], the enrichment score was inactive: 1.96.

With RASDYYSQQMA [GBP6_Y334_A331S], the enrichment score was inactive: 0.673.

As for PKEQKYSFLQN [GH1_Y68], the enrichment score was inactive: 0.623.

Take RENGPYYTSYP [GDAP2_Y487]: the enrichment score is inactive: 0.654.

Turning to RENGPYFTSFP [GDAP2_Y487_YF], the enrichment score was inactive: 0.652.

Turning to NFYEYYVDDPP [GCHFR_Y48], the enrichment score was inactive: 0.946.

Turning to PYYTSYPPSPD [GDAP2_Y491], the enrichment score was inactive: 0.819.

Consider LSVISYDLGMF [GBA3_Y174_M172I], for which the enrichment score was active: 7.64.

On to QPRDIYHQTWA [GBA_Y244_G241R], for which the enrichment score was inactive: 0.842.

With TKDTIYKQPMF [GBA_Y451_F450I], the enrichment score is inactive: 1.78.

With PKEQRYSFLQN [GH1_Y68_K67R], the enrichment score was inactive: 0.522.

For VKMLLYTEVTR [GDI1_Y93], the enrichment score was inactive: 1.52.

For another test, the target named is SHP2 N-SH2 domain wild-type. Described as above. The conditions noted are these: peptide library: pTyr-Var.
On to AAESTYDKILK [GDNF_Y156_T154S], for which the enrichment score was inactive: 0.503.

Consider ITNLLYHVVGG [GBA_Y412_W417G], for which the enrichment score was inactive: 1.75.

On to GISDEYHVIRH [GCDH_Y398], for which the enrichment score is inactive: 0.903.

SDVSSYLEGQV [GCG_Y110_A115V]: the enrichment score was inactive: 0.687.

For ITNLLYHVVSW [GBA_Y412_G416S], the enrichment score is active: 3.38.

For NTFEKYWLFFQ [GATM_Y103_P105L_YF], the enrichment score is inactive: 2.52.

For TKDTFYQQPMF [GBA_Y451_K452Q], the enrichment score is inactive: 0.764.

With VNFDYYTVNLG [GFPT1_Y367_D366Y], the enrichment score is inactive: 1.67.

Take RASDYYSQQMA [GBP6_Y334_A331S]: the enrichment score is inactive: 0.886.

Regarding PKEQKYSFLQN [GH1_Y68], the enrichment score was inactive: 0.84.

For the molecule RENGPYYTSYP [GDAP2_Y487], the enrichment score is inactive: 0.576.

For RENGPYFTSFP [GDAP2_Y487_YF], the enrichment score is inactive: 0.74.

As for NFYEYYVDDPP [GCHFR_Y48], the enrichment score is inactive: 0.746.

In the case of PYYTSYPPSPD [GDAP2_Y491], the enrichment score was inactive: 0.872.

For LSVISYDLGMF [GBA3_Y174_M172I], the enrichment score was inactive: 2.1.

Consider QPRDIYHQTWA [GBA_Y244_G241R], for which the enrichment score is inactive: 0.912.

In the case of TKDTIYKQPMF [GBA_Y451_F450I], the enrichment score was inactive: 1.12.

In the case of PKEQRYSFLQN [GH1_Y68_K67R], the enrichment score is inactive: 0.737.

As for VKMLLYTEVTR [GDI1_Y93], the enrichment score is inactive: 1.7.
